# From patent US20190336582A1 (published 2019)
# T1: IL-10 receptor (IL-10R1 and IL-10R2 receptor chains) on mouse cells (mouse, UniProt Q61727 17-575; Q61190 20-349)
# T1 sequence (looked up) 1: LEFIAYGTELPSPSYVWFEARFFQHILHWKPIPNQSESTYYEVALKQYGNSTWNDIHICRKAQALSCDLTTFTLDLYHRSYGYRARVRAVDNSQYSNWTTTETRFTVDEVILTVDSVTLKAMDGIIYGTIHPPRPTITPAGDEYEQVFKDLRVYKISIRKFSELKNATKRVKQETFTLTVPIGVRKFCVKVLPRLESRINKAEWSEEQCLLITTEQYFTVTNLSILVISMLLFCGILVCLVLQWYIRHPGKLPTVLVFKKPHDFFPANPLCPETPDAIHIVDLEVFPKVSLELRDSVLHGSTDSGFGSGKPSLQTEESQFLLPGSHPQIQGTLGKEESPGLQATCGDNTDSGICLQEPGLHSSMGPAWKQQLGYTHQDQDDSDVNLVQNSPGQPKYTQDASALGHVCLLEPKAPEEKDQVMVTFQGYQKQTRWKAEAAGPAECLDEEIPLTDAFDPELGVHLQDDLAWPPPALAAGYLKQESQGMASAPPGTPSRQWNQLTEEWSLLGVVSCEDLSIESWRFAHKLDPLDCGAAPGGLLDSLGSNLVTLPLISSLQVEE
# T1 sequence (looked up) 2: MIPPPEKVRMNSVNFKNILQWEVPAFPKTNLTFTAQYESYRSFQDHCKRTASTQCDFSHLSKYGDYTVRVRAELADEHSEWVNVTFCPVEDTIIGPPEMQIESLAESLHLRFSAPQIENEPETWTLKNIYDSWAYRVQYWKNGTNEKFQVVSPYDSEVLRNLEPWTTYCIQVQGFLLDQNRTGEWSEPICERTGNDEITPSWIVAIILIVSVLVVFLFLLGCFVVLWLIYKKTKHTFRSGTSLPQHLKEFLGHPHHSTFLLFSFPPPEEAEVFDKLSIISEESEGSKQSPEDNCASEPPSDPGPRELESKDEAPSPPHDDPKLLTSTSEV
# B1: (scIL-10:Fc), hinge truncation mutant 2 (Fc fusion)
# chain: SPGQGTQSENSCTHFPGNLPNMLRDLRDAFSRVKTFFQMKDQLDNLLLKESLLEDFKGYLGCQALSEMIQFYLEEVMPQAENQDPDIKAHVNSLGENLKTLRLRLRRCHRFLPCENKSKAVEQVKNAFNKLQEKGIYKAMSEFDIFINYIEAYMTMKIRNGGSGGSPGQGTQSENSCTHFPGNLPNMLRDLRDAFSRVKTFFQMKDQLDNLLLKESLLEDFKGYLGCQALSEMIQFYLEEVMPQAENQDPDIKAHVNSLGENLKTLRLRLRRCHRFLPCENKSKAVEQVKNAFNKLQEKGIYKAMSEFDIFINYIEAYMTMKI[human IgG1 Fc and a few adjoining residues cut from this listing]
# B2: (scIL-10:Fc), hinge truncation mutant 3 (Fc fusion)
# chain: SPGQGTQSENSCTHFPGNLPNMLRDLRDAFSRVKTFFQMKDQLDNLLLKESLLEDFKGYLGCQALSEMIQFYLEEVMPQAENQDPDIKAHVNSLGENLKTLRLRLRRCHRFLPCENKSKAVEQVKNAFNKLQEKGIYKAMSEFDIFINYIEAYMTMKIRNGGSGGSPGQGTQSENSCTHFPGNLPNMLRDLRDAFSRVKTFFQMKDQLDNLLLKESLLEDFKGYLGCQALSEMIQFYLEEVMPQAENQDPDIKAHVNSLGENLKTLRLRLRRCHRFLPCENKSKAVEQVKNAFNKLQEKGIYKAMSEFDIFINYIEAYMTMKI[human IgG1 Fc and a few adjoining residues cut from this listing]
# B3: D41F:linker:wtIL-10 (R1 mutant) (Fc fusion)
# chain: SPGQGTQSENSCTHFPGNLPNMLRDLRDAFSRVKTFFQMKFQLDNLLLKESLLEDFKGYLGCQALSEMIQFYLEEVMPQAENQDPDIKAHVNSLGENLKTLRLRLRRCHRFLPCENKSKAVEQVKNAFNKLQEKGIYKAMSEFDIFINYIEAYMTMKIRNGGSGGGGSGGSPGQGTQSENSCTHFPGNLPNMLRDLRDAFSRVKTFFQMKDQLDNLLLKESLLEDFKGYLGCQALSEMIQFYLEEVMPQAENQDPDIKAHVNSLGENLKTLRLRLRRCHRFLPCENKSKAVEQVKNAFNKLQEKGIYKAMSEFDIFINYIEAYMTMKIRNGGGGSGGGGSRTVAAPSVFIFPPSDEQLKSGTASVVCLLNNFYPREAKVQWKVDNALQSGNSQESVTEQDSKDSTYSLSSTLTLSKADYEKHKVYACEVTHQGLSSPVTKSFNRGECGGGGSGGGGSGGGGSGGGGSASTKGPSVFPLAPSSKSTSGGTAALGCLVKDYFPEPVTVSWNSGALTSGVHTFPAVLQSSGLYSLSSVVTVPSSSLGTQTYICNVNHKPSNTKVDKRV[human IgG1 Fc cut from this listing]
# B4: wtIL-10:linkerD41F (R1 mutant) (Fc fusion)
# chain: SPGQGTQSENSCTHFPGNLPNMLRDLRDAFSRVKTFFQMKDQLDNLLLKESLLEDFKGYLGCQALSEMIQFYLEEVMPQAENQDPDIKAHVNSLGENLKTLRLRLRRCHRFLPCENKSKAVEQVKNAFNKLQEKGIYKAMSEFDIFINYIEAYMTMKIRNGGSGGGGSGGSPGQGTQSENSCTHFPGNLPNMLRDLRDAFSRVKTFFQMKFQLDNLLLKESLLEDFKGYLGCQALSEMIQFYLEEVMPQAENQDPDIKAHVNSLGENLKTLRLRLRRCHRFLPCENKSKAVEQVKNAFNKLQEKGIYKAMSEFDIFINYIEAYMTMKIRNGGGGSGGGGSRTVAAPSVFIFPPSDEQLKSGTASVVCLLNNFYPREAKVQWKVDNALQSGNSQESVTEQDSKDSTYSLSSTLTLSKADYEKHKVYACEVTHQGLSSPVTKSFNRGECGGGGSGGGGSGGGGSGGGGSASTKGPSVFPLAPSSKSTSGGTAALGCLVKDYFPEPVTVSWNSGALTSGVHTFPAVLQSSGLYSLSSVVTVPSSSLGTQTYICNVNHKPSNTKVDKRV[human IgG1 Fc cut from this listing]
# B5: M22A:linker:wtIL-10 (R2 mutant) (Fc fusion)
# chain: SPGQGTQSENSCTHFPGNLPNALRDLRDAFSRVKTFFQMKDQLDNLLLKESLLEDFKGYLGCQALSEMIQFYLEEVMPQAENQDPDIKAHVNSLGENLKTLRLRLRRCHRFLPCENKSKAVEQVKNAFNKLQEKGIYKAMSEFDIFINYIEAYMTMKIRNGGSGGGGSGGSPGQGTQSENSCTHFPGNLPNMLRDLRDAFSRVKTFFQMKDQLDNLLLKESLLEDFKGYLGCQALSEMIQFYLEEVMPQAENQDPDIKAHVNSLGENLKTLRLRLRRCHRFLPCENKSKAVEQVKNAFNKLQEKGIYKAMSEFDIFINYIEAYMTMKIRNGGGGSGGGGSRTVAAPSVFIFPPSDEQLKSGTASVVCLLNNFYPREAKVQWKVDNALQSGNSQESVTEQDSKDSTYSLSSTLTLSKADYEKHKVYACEVTHQGLSSPVTKSFNRGECGGGGSGGGGSGGGGSGGGGSASTKGPSVFPLAPSSKSTSGGTAALGCLVKDYFPEPVTVSWNSGALTSGVHTFPAVLQSSGLYSLSSVVTVPSSSLGTQTYICNVNHKPSNTKVDKRV[human IgG1 Fc cut from this listing]
# B6: wtIL-10:linker:M22A (R2 mutant) (Fc fusion)
# chain: SPGQGTQSENSCTHFPGNLPNMLRDLRDAFSRVKTFFQMKDQLDNLLLKESLLEDFKGYLGCQALSEMIQFYLEEVMPQAENQDPDIKAHVNSLGENLKTLRLRLRRCHRFLPCENKSKAVEQVKNAFNKLQEKGIYKAMSEFDIFINYIEAYMTMKIRNGGSGGGGSGGSPGQGTQSENSCTHFPGNLPNALRDLRDAFSRVKTFFQMKDQLDNLLLKESLLEDFKGYLGCQALSEMIQFYLEEVMPQAENQDPDIKAHVNSLGENLKTLRLRLRRCHRFLPCENKSKAVEQVKNAFNKLQEKGIYKAMSEFDIFINYIEAYMTMKIRNGGGGSGGGGSRTVAAPSVFIFPPSDEQLKSGTASVVCLLNNFYPREAKVQWKVDNALQSGNSQESVTEQDSKDSTYSLSSTLTLSKADYEKHKVYACEVTHQGLSSPVTKSFNRGECGGGGSGGGGSGGGGSGGGGSASTKGPSVFPLAPSSKSTSGGTAALGCLVKDYFPEPVTVSWNSGALTSGVHTFPAVLQSSGLYSLSSVVTVPSSSLGTQTYICNVNHKPSNTKVDKRV[human IgG1 Fc cut from this listing]
# B7: M22A:linker:M22A (R2 mutant) (Fc fusion)
# chain: SPGQGTQSENSCTHFPGNLPNALRDLRDAFSRVKTFFQMKDQLDNLLLKESLLEDFKGYLGCQALSEMIQFYLEEVMPQAENQDPDIKAHVNSLGENLKTLRLRLRRCHRFLPCENKSKAVEQVKNAFNKLQEKGIYKAMSEFDIFINYIEAYMTMKIRNGGSGGGGSGGSPGQGTQSENSCTHFPGNLPNALRDLRDAFSRVKTFFQMKDQLDNLLLKESLLEDFKGYLGCQALSEMIQFYLEEVMPQAENQDPDIKAHVNSLGENLKTLRLRLRRCHRFLPCENKSKAVEQVKNAFNKLQEKGIYKAMSEFDIFINYIEAYMTMKIRNGGGGSGGGGSRTVAAPSVFIFPPSDEQLKSGTASVVCLLNNFYPREAKVQWKVDNALQSGNSQESVTEQDSKDSTYSLSSTLTLSKADYEKHKVYACEVTHQGLSSPVTKSFNRGECGGGGSGGGGSGGGGSGGGGSASTKGPSVFPLAPSSKSTSGGTAALGCLVKDYFPEPVTVSWNSGALTSGVHTFPAVLQSSGLYSLSSVVTVPSSSLGTQTYICNVNHKPSNTKVDKRV[human IgG1 Fc cut from this listing]
# B8: M22A:linker:D41F (R1 + R2 mutant), SEQ ID NO: 26 (Fc fusion)
# chain: SPGQGTQSENSCTHFPGNLPNALRDLRDAFSRVKTFFQMKFQLDNLLLKESLLEDFKGYLGCQALSEMIQFYLEEVMPQAENQDPDIKAHVNSLGENLKTLRLRLRRCHRFLPCENKSKAVEQVKNAFNKLQEKGIYKAMSEFDIFINYIEAYMTMKIRNGGSGGGGSGGSPGQGTQSENSCTHFPGNLPNMLRDLRDAFSRVKTFFQMKDQLDNLLLKESLLEDFKGYLGCQALSEMIQFYLEEVMPQAENQDPDIKAHVNSLGENLKTLRLRLRRCHRFLPCENKSKAVEQVKNAFNKLQEKGIYKAMSEFDIFINYIEAYMTMKIRNGGGGSGGGGSRTVAAPSVFIFPPSDEQLKSGTASVVCLLNNFYPREAKVQWKVDNALQSGNSQESVTEQDSKDSTYSLSSTLTLSKADYEKHKVYACEVTHQGLSSPVTKSFNRGECGGGGSGGGGSGGGGSGGGGSASTKGPSVFPLAPSSKSTSGGTAALGCLVKDYFPEPVTVSWNSGALTSGVHTFPAVLQSSGLYSLSSVVTVPSSSLGTQTYICNVNHKPSNTKVDKRV[human IgG1 Fc cut from this listing]
# Target: T1, IL-10 receptor (IL-10R1 and IL-10R2 …)
# Test: cell-based or functional assay
Binder,"EC50, proliferation of mouse mast cell line MC/9","IC50, inhibition of TNFα production in LPS-stimulated C57BL/6 mouse PBMCs (PBMC + LPS)"
B1,864 pM,
B2,1010 pM,
B3,264 pM,0.12 pM
B4,1370 pM,0.18 pM
B5,47 pM,0.077 pM
B6,38 pM,0.045 pM
B7,541 pM,0.73 pM
B8,987 pM,2.1 pM
